# Data published in a collection of fitness landscapes (doi:10.1126/science.1257360).
# Some of the results follow.
# B1: PhoQ; a variant is named by its letters at X, in order, P23837 (parent)
# chain: MKKLLRLFFPLSLRVRFLLATAAVVLVLSLAYGMVALIGYSVSFDKTTFRLLRGESNLFYTLAKWENNKLHVELPENIDKQSPTMTLIYDENGQLLWAQRDVPWLMKMIQPDWLKSNGFHEIEADVNDTSLLLSGDHSIQQQLQEVREDDDDAEMTHSVAVNVYPATSRMPKLTIVVVDTIPVELKSSYMVWSWFIYVLSANLLLVIPLLWVAAWWSLRPIEALAKEVRELEEHNRELLNPATTRELTSLVRNLNRLLKSERERYDKYRTTLTDLTHSLKTPLXXLQXXLRSLRSEKMSVSDAEPVMLEQISRISQQIGYYLHRASMRGGTLLSRELHPVAPLLDNLTSALNKVYQRKGVNISLDISPEISFVGEQNDFVEVMGNVLDNACKYCLEFVEISARQTDEHLYIVVEDDGPGIPLSKREVIFDRGQRVDTLRPGQGVGLAVAREITEQYEGKIVAGESMLGGARMEVIFGRQHSAPKDE
# Variants of: B1
# Experiment: enrichment ratio after two sorts for PhoP signalling (ratio (wild type AVST 3.29)); higher = more functional
# Settings: with PhoP (E. coli)
row,Variant,enrichment ratio
1,HHES,≤ 0.25
2,FSHG,≤ 0.25
3,TFNM,≤ 0.25
4,KYKT,≤ 0.25
5,WTRR,≤ 0.25
6,KKKI,≤ 0.25
7,QKMI,≤ 0.25
8,DLWC,≤ 0.25
9,MIHF,3.77
10,QLFP,≤ 0.25
11,TSWV,11
12,LRRK,≤ 0.25
13,IVYP,≤ 0.25
14,ACSG,12.3
15,QDGA,≤ 0.25
16,RDKP,≤ 0.25
17,MMIM,≤ 0.25
18,WYSQ,≤ 0.25
19,ACTV,8.69
20,MMVS,≤ 0.25
21,ASPS,≤ 0.25
22,WHNN,≤ 0.25
23,DTKY,≤ 0.25
24,RTER,≤ 0.25
25,NGGH,≤ 0.25
26,FAAH,≤ 0.25

row,Variant,enrichment ratio
1,DMEY,≤ 0.25
2,PTGY,≤ 0.25
3,MHPR,≤ 0.25
4,MKGS,2.48
5,DTIR,≤ 0.25
6,YRMK,≤ 0.25
7,QDID,≤ 0.25
8,FRER,≤ 0.25
9,TGAN,2.47
10,PTQD,≤ 0.25
11,FRIA,≤ 0.25
12,CIVS,≤ 0.25
13,PTSL,≤ 0.25
14,SALH,10.3
15,TYEY,≤ 0.25
16,YQNL,≤ 0.25
17,LAVT,≤ 0.25
18,LLGI,≤ 0.25
19,SMTR,0.844
20,PQYW,≤ 0.25
21,ECHG,≤ 0.25
22,TNYQ,≤ 0.25
23,AFAY,≤ 0.25
24,VPRW,≤ 0.25
25,VFKF,≤ 0.25
26,QFNY,≤ 0.25

row,Variant,enrichment ratio
1,YSDL,≤ 0.25
2,GVGC,≤ 0.25
3,KDRN,≤ 0.25
4,ATAA,≤ 0.25
5,GGAD,≤ 0.25
6,DMDL,≤ 0.25
7,YASA,≤ 0.25
8,QWPT,≤ 0.25
9,GRPN,≤ 0.25
10,PLDC,≤ 0.25
11,VAMR,≤ 0.25
12,GSTI,12.2
13,HKHN,≤ 0.25
14,SGMT,6.68
15,DACM,≤ 0.25
16,IAKG,≤ 0.25
17,IPYT,≤ 0.25
18,GELW,≤ 0.25
19,SHMA,≤ 0.25
20,GQKC,≤ 0.25
21,MTTI,5.04
22,SNLN,6.01
23,DTYM,≤ 0.25
24,DFDR,≤ 0.25
25,LPAV,0.353
26,TSGV,10.7

row,Variant,enrichment ratio
1,GKSG,≤ 0.25
2,MVHT,≤ 0.25
3,MDKA,≤ 0.25
4,GNVP,≤ 0.25
5,IGTC,≤ 0.25
6,AMLQ,0.306
7,YYAG,≤ 0.25
8,AYVC,≤ 0.25
9,ASMW,5.78
10,PKAL,≤ 0.25
11,FHWI,≤ 0.25
12,EYFY,≤ 0.25
13,SVSG,13.4
14,FLMD,≤ 0.25
15,IAPV,≤ 0.25
16,IVPK,≤ 0.25
17,TAMA,5.5
18,SLFA,≤ 0.25
19,MGQW,≤ 0.25
20,MISP,≤ 0.25
21,KKLQ,≤ 0.25
22,RKYV,≤ 0.25
23,RNCF,≤ 0.25
24,WGVN,≤ 0.25
25,YNLV,1.85
26,QCVY,≤ 0.25

row,Variant,enrichment ratio
1,IEGQ,≤ 0.25
2,PQMY,≤ 0.25
3,QAWF,4.29
4,WDMN,≤ 0.25
5,CSIL,≤ 0.25
6,YWHP,≤ 0.25
7,MQHG,≤ 0.25
8,QEHH,6.98
9,MGYL,5.25
10,AYNL,≤ 0.25
11,KLKA,≤ 0.25
12,FSAH,0.363
13,QKRE,≤ 0.25
14,KYDQ,≤ 0.25
15,NWIF,≤ 0.25
16,WSYG,≤ 0.25
17,DINR,≤ 0.25
18,FNLK,≤ 0.25
19,VIFN,≤ 0.25
20,PIGP,≤ 0.25
21,SADI,≤ 0.25
22,GCDG,≤ 0.25
23,LPKY,≤ 0.25
24,NWSQ,≤ 0.25
25,VGCD,≤ 0.25
26,KHNV,≤ 0.25

row,Variant,enrichment ratio
1,KGHP,≤ 0.25
2,MRLK,≤ 0.25
3,WQGG,≤ 0.25
4,DHLV,≤ 0.25
5,VDTG,≤ 0.25
6,SERK,≤ 0.25
7,WHYY,≤ 0.25
8,KNHW,≤ 0.25
9,TWRI,≤ 0.25
10,INNQ,9.63
11,LYGS,≤ 0.25
12,RMKD,≤ 0.25
13,MWCV,≤ 0.25
14,HNAC,≤ 0.25
15,LIQK,≤ 0.25
16,VEAQ,≤ 0.25
17,GHSD,≤ 0.25
18,EFSE,≤ 0.25
19,WMAY,≤ 0.25
20,MRYE,≤ 0.25
21,LECI,3.94
22,TMRC,≤ 0.25
23,YIAW,0.346
